# Experimental data from the supplement of paper PMC8728848.
# Some of the results follow.
# B1: MRCL (Homo sapiens), NP_872425.1 (protein)
# chain: ATKVHFPFHTCDLRIDGDCFMVSSEADTYYRARMKCQRKGGVLAQIKSQKVQDILAFYLGRLETTNEVTDSDFETRNFWIGLTYKTAKDSFRWATGEHQAFTSFAFGQPDNHGLVWLSAAMGFGNCVELQASAAFNWNNQRCKTRNRYICQFAQEHISRWGPGS
# How the values were obtained:
# Assay in all cases: glycan array binding signal (z-score within array); higher = stronger binding
# Conditions in all cases: glycan notation: IUPAC condensed, linker removed
# [1] = molecular target: Gal3S6S(b1-4)GlcNAc6S
# Summary of the method: (§1)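 The binding signal is a Z-score computed within each array and averaged over linkers. Arrays of the same protein sequence at different concentrations or buffers were also averaged together. Data originate from 3228 arrays in the Consortium for Functional Glycomics database, kept only where the protein sequence was available.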
# [2] = molecular target: Gal4S(b1-4)GlcNAc
# Summary of the method: as §1
# [3] = molecular target: Gal4S6S(b1-4)GlcNAc
# Summary of the method: as §1
# [4] = molecular target: Gal6S(b1-4)Glc
# Summary of the method: as §1
# [5] = molecular target: Gal6S(b1-4)Glc6S
# Summary of the method: as §1
# [6] = molecular target: Gal6S(b1-4)GlcNAc
# Summary of the method: as §1
# [7] = molecular target: Gal6S(b1-4)GlcNAc6S
# Summary of the method: as §1
# [8] = molecular target: GalNAc(a1-3)Gal
# Summary of the method: as §1
# [9] = molecular target: GalNAc(a1-3)GalNAc
# Summary of the method: as §1
# [10] = molecular target: GalNAc(b1-3)Gal
# Summary of the method: as §1
# [11] = molecular target: GalNAc(b1-3)Gal(a1-4)Gal(b1-4)GlcNAc
# Summary of the method: as §1
# [12] = molecular target: GalNAc(b1-3)Gal(a1-4)Gal(b1-4)GlcNAc(b1-3)Gal(b1-4)Glc
# Summary of the method: as §1
# [13] = molecular target: GalNAc(b1-3)GalNAc
# Summary of the method: as §1
# [14] = molecular target: GalNAc(b1-4)GlcNAc
# Summary of the method: as §1
# [15] = molecular target: GalNAc(b1-4)GlcNAc(b1-2)Man(a1-3)[GalNAc(b1-4)GlcNAc(b1-2)Man(a1-6)]Man(b1-4)GlcNAc(b1-4)GlcNAc
# Summary of the method: as §1
# [16] = molecular target: Glc(a1-4)Glc
# Summary of the method: as §1
# [17] = molecular target: Glc(a1-6)Glc(a1-6)Glc
# Summary of the method: as §1
# [18] = molecular target: Glc(b1-4)Glc
# Summary of the method: as §1
# [19] = molecular target: Glc(b1-6)Glc
# Summary of the method: as §1
# [20] = molecular target: GlcA(b1-3)Gal
# Summary of the method: as §1
# [21] = molecular target: GlcA(b1-3)GlcNAc
# Summary of the method: as §1
# [22] = molecular target: GlcA(b1-6)Gal
# Summary of the method: as §1
# [23] = molecular target: GlcNAc(a1-3)Gal(b1-4)GlcNAc
# Summary of the method: as §1
# [24] = molecular target: GlcNAc(a1-4)Gal(b1-3)GlcNAc
# Summary of the method: as §1
# [25] = molecular target: GlcNAc(a1-4)Gal(b1-4)GalNAc
# Summary of the method: as §1
# [26] = molecular target: GlcNAc(a1-4)Gal(b1-4)GlcNAc
# Summary of the method: as §1
# [27] = molecular target: GlcNAc(a1-4)Gal(b1-4)GlcNAc(b1-3)Gal(b1-4)Glc
# Summary of the method: as §1
# [28] = molecular target: GlcNAc(a1-4)Gal(b1-4)GlcNAc(b1-3)Gal(b1-4)GlcNAc
# Summary of the method: as §1
# [29] = molecular target: GlcNAc(a1-4)Gal(b1-4)GlcNAc(b1-3)Gal(b1-4)GlcNAc(b1-3)Gal(b1-4)GlcNAc
# Summary of the method: as §1
# [30] = molecular target: GlcNAc(a1-4)Gal(b1-4)GlcNAc(b1-3)Gal(b1-4)[Fuc(a1-3)]GlcNAc(b1-3)Gal(b1-4)[Fuc(a1-3)]GlcNAc
# Summary of the method: as §1
# [31] = molecular target: GlcNAc(a1-6)Gal(b1-4)GlcNAc
# Summary of the method: as §1
# [32] = molecular target: GlcNAc(b1-2)Gal(b1-3)GalNAc
# Summary of the method: as §1
# [33] = molecular target: GlcNAc(b1-2)Man(a1-3)[GlcNAc(b1-2)Man(a1-6)]Man(b1-4)GlcNAc(b1-4)GlcNAc
# Summary of the method: as §1
# [34] = molecular target: GlcNAc(b1-2)Man(a1-3)[GlcNAc(b1-2)Man(a1-6)]Man(b1-4)GlcNAc(b1-4)[Fuc(a1-6)]GlcNAc
# Summary of the method: as §1
# [35] = molecular target: GlcNAc(b1-3)Gal
# Summary of the method: as §1
# [36] = molecular target: GlcNAc(b1-3)Gal(b1-3)GalNAc
# Summary of the method: as §1
# [37] = molecular target: GlcNAc(b1-3)Gal(b1-4)Glc
# Summary of the method: as §1
# [38] = molecular target: GlcNAc(b1-3)Gal(b1-4)GlcNAc
# Summary of the method: as §1
# [39] = molecular target: GlcNAc(b1-3)Gal(b1-4)GlcNAc(b1-3)Gal(b1-4)GlcNAc
# Summary of the method: as §1
# [40] = molecular target: GlcNAc(b1-3)GalNAc
# Summary of the method: as §1
# [41] = molecular target: GlcNAc(b1-3)Man
# Summary of the method: as §1
# [42] = molecular target: GlcNAc(b1-3)[GlcNAc(b1-4)][GlcNAc(b1-6)]GlcNAc
# Summary of the method: as §1
# [43] = molecular target: GlcNAc(b1-3)[GlcNAc(b1-6)]Gal(b1-4)GlcNAc
# Summary of the method: as §1
# [44] = molecular target: GlcNAc(b1-3)[GlcNAc(b1-6)]GalNAc
# Summary of the method: as §1
# [45] = molecular target: GlcNAc(b1-4)Gal(b1-4)GlcNAc
# Summary of the method: as §1
binder,measurement,setting,value
B1,glycan array binding signal (z-score),[1],0.67
same,glycan array binding signal (z-score),[2],0.136
same,glycan array binding signal (z-score),[3],1.78
same,glycan array binding signal (z-score),[4],0.022
same,glycan array binding signal (z-score),[5],0.13
same,glycan array binding signal (z-score),[6],-0.508
same,glycan array binding signal (z-score),[7],-0.114
same,glycan array binding signal (z-score),[8],2.44
same,glycan array binding signal (z-score),[9],-0.581
same,glycan array binding signal (z-score),[10],-0.038
same,glycan array binding signal (z-score),[11],0.091
same,glycan array binding signal (z-score),[12],2.11
same,glycan array binding signal (z-score),[13],-0.074
same,glycan array binding signal (z-score),[14],0.299
same,glycan array binding signal (z-score),[15],1.52
same,glycan array binding signal (z-score),[16],-0.546
same,glycan array binding signal (z-score),[17],-0.679
same,glycan array binding signal (z-score),[18],-0.583
same,glycan array binding signal (z-score),[19],-0.712
same,glycan array binding signal (z-score),[20],-0.721
same,glycan array binding signal (z-score),[21],-0.733
same,glycan array binding signal (z-score),[22],0.237
same,glycan array binding signal (z-score),[23],-0.59
same,glycan array binding signal (z-score),[24],-0.411
same,glycan array binding signal (z-score),[25],-0.302
same,glycan array binding signal (z-score),[26],-0.672
same,glycan array binding signal (z-score),[27],-0.255
same,glycan array binding signal (z-score),[28],-0.852
same,glycan array binding signal (z-score),[29],1.88
same,glycan array binding signal (z-score),[30],1.11
same,glycan array binding signal (z-score),[31],5.62
same,glycan array binding signal (z-score),[32],-0.64
same,glycan array binding signal (z-score),[33],0.689
same,glycan array binding signal (z-score),[34],-0.537
same,glycan array binding signal (z-score),[35],-0.774
same,glycan array binding signal (z-score),[36],0.673
same,glycan array binding signal (z-score),[37],-0.645
same,glycan array binding signal (z-score),[38],-0.603
same,glycan array binding signal (z-score),[39],0.13
same,glycan array binding signal (z-score),[40],-0.74
same,glycan array binding signal (z-score),[41],-0.318
same,glycan array binding signal (z-score),[42],-0.622
same,glycan array binding signal (z-score),[43],-0.681
same,glycan array binding signal (z-score),[44],-0.125
same,glycan array binding signal (z-score),[45],0.191
